This is one part of the list.
The sequences below were run on T1, Caupolican (Caup) homeodomain DNA-binding domain (assay: PBM E-score (8-mer, recovered from the published 9-mer minima) (E-score (dimensionless, -0.5 to 0.5)); Drosophila protein; higher = stronger relative binding preference, active = 0.31 or more).
T1 sequence: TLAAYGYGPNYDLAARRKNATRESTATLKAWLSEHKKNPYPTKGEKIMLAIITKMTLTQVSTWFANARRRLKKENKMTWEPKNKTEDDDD
In short: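 Caup's homeodomain DNA-binding domain (residues 214-303) was produced by in vitro transcription and translation and applied at 100 nM to custom-designed protein binding microarrays. Each value is an enrichment score giving relative binding preference for a short DNA word; higher means stronger. Published 9-mer scores were the minimum of their two constituent 8-mer scores, and the 8-mer values were recovered from those minima. A cutoff of 0.31 marks candidate binding sequences.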

PBM E-score, ≥ -0.0223:
TCCGAGCA

PBM E-score, ≥ -0.00722:
ATGCCAGA

PBM E-score, ≥ -0.079:
ACGGCGCA

PBM E-score, ≥ -0.00355:
TACCGCGA

PBM E-score, ≥ 0.102:
TAAAACCA

PBM E-score, inactive:
CATCCGGC -0.147
CATTCAAC 0.0807
ATTAGATG 0.235
CGGGCGCC -0.242
AGTTGGCC -0.159
GCTTCCAC -0.182
ACCAAACT 0.024
ACCATGAA 0.0242
GTGCATAA 0.0622
GTGGTCCA -0.00936
ATATATCA 0.169
GCCCAAGA -0.14
AAGATCCT 0.0178
AATTGAGG -0.075
ACAGATCT 0.0481
AAGGTCGC -0.147
CTATTCAG 0.0806
AAGGCAAC 0.0408
CAGATTTA 0.096
ACGGGACA 0.123
ACCGCCTC -0.212
AAAGATAC 0.0695
GCTGTAAC 0.179
AATCACCC 0.00243
AGAGGGGC -0.337
AATAAATA 0.202
CGCAGAGA -0.0806
GGTGAAAA -0.0222
GCTAGTCA 0.0294
GTGGTGTA 0.271
AGCGACTC -0.0591
AGAAGCCG -0.154
CCCAAGAG -0.149
AGGGCACC -0.242
TGAGTTAA 0.0401
AATAAAGG -0.11
AGCTCCTG -0.118
ATGCAGTC 0.0866
GATCTCCC -0.189
GGCGCTCA -0.152
CTAACAGA 0.0773
AGCTATTC -0.0818
ACTTGGCT -0.0889
CACCCGAG -0.179
CCTATAAC 0.0905
CCGAGTAC -0.00195
GGCGGCGA -0.175
AGAGCATC 0.0055
GTACAATA 0.306
TACGGCGA 0.00232
CAGGGCAA -0.0283
AGTCAACA 0.263
ACTCCCTG -0.0389
GGGGGCAA -0.254
CAGACCTC -0.196
ATATATCG 0.0746
TGAATACA 0.211
AAAAGTCT -0.00119
AACGTAAC 0.171
CATCAAGA 0.0686
AGCGACAG 0.105
AGCATGGA 0.0568
CAAAATAG -0.0389
GTCTACTA 0.138
ACAACGGC 0.0872
ATGATGAG 0.0566
CGCACCCA -0.106
CAGCACGC -0.0923
CATGCGGA -0.166
CCAGGATA 0.0505
ACACACAG 0.142
AGTGCACC -0.0525
AAGGCGGA -0.159
GTAGTTGA 0.104
CGTCGACG -0.16
AAGGGAGG -0.134
AGTGCATC 0.024
ACAACCCA 0.208
AAATGACG 0.171
CGAGGTAG -0.114
CTCAACGC -0.184
AACCTGAG -0.0934
GCACCTCA -0.00871
CATCTTAA 0.0716
CGCTTCAG -0.124
CCCACGGC -0.284
ATGCACGG -0.0563
CCCAAACG -0.0329
GAAAGAGC -0.123
AGGGTCTA -0.154
GAATATGA 0.0203
GCAGGCCA -0.136
CTTTTACA 0.255
ACATGAGG 0.228
CATTAGTC 0.00044
ACCGTTGG 0.00243
GGTGTAAC 0.205
CGAAAGAC -0.0666
ATTCAGCC -0.121
ACGGGGTC -0.189
ATCCCACA -0.00373
CAAGGAAG 0.0116
GAGATACC 0.00712
ATCCCTTG -0.0111
GTAGGGCA -0.058
TGAGTGAA -0.0013
GATGTCCA 0.195
GCCGGACC -0.294
CACCTCAC 0.021
ATCAGAAG -0.0272
AGGCAGCG -0.143
CTGACCTC -0.0972
AGTAGTTG 0.0486
GTGAAAGA -0.0128
AAATCGTG 0.108
AAAAAACG 0.0324
CAGATTCC -0.0442
CCGTTAGC -0.0957
CGCTAATC -0.0282
AAGCAACT 0.0512
CTATCGCC -0.063
CGGTGATA 0.145
AACCTCCC -0.0854
GGAATTTA 0.0587
GCGGATGA -0.0607
CTGATGAC 0.0472
ACCAATCT 0.0871
GTGGATCA -0.0757
ACACCTCC 0.0827
AGGCGTTG -0.0379
CATGAGAG -0.0256
ACCCTCGC -0.266
ATACAATA 0.26
CGTGCCCA -0.113
TACGGAAA 0.00457
AACATCAG 0.231
CACGGCAA 0.0903
CACAGGGC -0.153
CGCATTCC -0.165
ATCTCAGC -0.0577
TACCGACA 0.182
AAATGGTC 0.0567
ATCGTTTG 0.0493
AATGATAG 0.11
GCCAAAGC -0.255
ACCCTAAC -0.0282
GTGAGTGA -0.0384
ACTAAGCG -0.0861
ACCTAAAT -0.00381
CACGGATC 0.00878
GCACCTGC -0.269
ATAGTGTG 0.0943
GAACCAGC 0.032
CTAACTTA 0.104
CTGTTAGA 0.105
CTTCCTAC -0.123
GGATAGCA -0.0195
GGTCAGGA -0.164
GGGTCTAC -0.106
CTTCAGTA -0.00156
CTGCAGCA -0.0336
CGCCGCCC -0.327
CAGGCAAG 0.00925
ATCTGCGC -0.0684
ACGCGCTA -0.00798
GCATGCAA 0.0861
CCAGGTCG -0.0728
AAACACTG 0.123
AACGGTCT -0.0251
TGGTGAAA 0.0422
GGACGCCC -0.286
CAGGTCAA -0.0852
GAGGAAAA -0.0811
CGATCATA 0.0822
AAGGTAGG -0.0549
ATTCTAGA 0.0185
ACGTCGTA 0.128
CCGGTGGA -0.155
AGTGATTG 0.107
ACGAGTGG -0.0696
TGGCCCAA -0.2
CCACGGCG -0.151
CTGTCGAC 0.0515
GTTAATAA 0.156
GCAAGACA 0.0548
GGGCAGCA -0.167
CCGACCAA -0.0268
AGGCTCGA -0.0902
CCACTCTC -0.148
ACAGTCGC -0.0513
ACGACACT 0.122
AGCCCATC -0.179
AGGGCCAA -0.235
GAGTGGAA -0.00388
CCGTCACG -0.12
ACGTCAGC 0.0443
GCTATGAC 0.0289
AGCCAATC -0.081
GAAGGCAA -0.113
AAGATATG 0.182
CCAAAGGC -0.126
ACCTAGCA 0.0379
ACAGACGA 0.126
AATGCGAT 0.0847
AATCCAGG -0.0254
CGTAGTAA 0.145
CCGCAAAG -0.0876
GCCCGATA -0.0865
CACGTGAG 0.0576
ACGTCTCA 0.0185
GCACATAC 0.00947
ACGGTTTC -0.0218

PBM E-score, ≥ 0.0303:
AAAGCCAT

PBM E-score, ≥ 0.0242:
ATCGCAGA

PBM E-score, ≥ 0.108:
AAGTCGTA

PBM E-score, active:
ACAACAAT 0.347
CTTGTATC 0.34
GACTACAC 0.33

Reference: the supplement of paper PMC3724861
